Source: the supplement of paper PMC10126150
Sequences with one replicate were seen in a single cluster, so their values are uncertain.

System: ATP
Experiment: switch fluorescence ratio, 500 uM ATP over buffer (Cy3 cluster intensity, sum of 5 cycles each) (fold (ratio)); higher = stronger signal-on switching upon ATP binding; sequences stand for … in TCGTCGGCAGCGTCAGATGTGTATAAGAGACAGTTTTTTTTTTTTTTTTTTTTTTTTT…TC
Conditions: aptamer strand: ATP DNA aptamer (quencher-CACCTGGGGGAGTATTGCGGAGGAAGG + anchor), 100 nM annealed; ATP concentration: 500 uM; one replicate
Method in brief: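 Exposure to 500 uM ATP lasted 15 min at 22 °C before imaging, and a selection-buffer image was taken beforehand, for Cy3-labelled switching-strand clusters on a modified Illumina MiSeq flow-cell annealed to 100 nM quencher-labelled ATP aptamer. Five buffer/ATP cycles were run with NaOH stripping and re-annealing between them. The fluorescence ratio per cluster is summed target-cycle over summed buffer-cycle Cy3 intensity, averaged per switch-domain sequence. Clusters outside 100-1000 RFU were excluded.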

Sequence	switch fluorescence ratio
GGTAACTGAA	0.989
TGGGTGATAC	1.33
GTTGTCCGTA	1.03
GGTAGCGGCG	0.938
GTCTCCCCGC	1.52
AACCCGCTGT	1.11
GTGTCGCACT	0.994
TCCGCCGGGA	1.96
AGAAATAGTT	0.983
TCCGGGCTAA	1
CGAGGGAGAC	1.46
GATGGAGTAG	1.04
GGTTGAAGGA	0.979
GAGCGTTTCG	1.03
ACTTAGGTGA	1.07
CTAGATGGTG	1.03
AGTTACCGTA	1.06
GGTCATGATA	0.975
ATAGGAAATG	0.992
GATCGTCGGC	1.05
CGCTTATTTG	0.99
TTCCGGAGGT	1.14
ATTATGAGAG	0.961

Sequence	switch fluorescence ratio
GCAGGGGCCT	0.997
TTCCCAAAGA	1.03
ATGTGTAGAC	1.01
ACATTATGCG	1.02
ACTTGTGTCG	1.02
AAATGATTCT	1.01
TGGTACAGCA	0.999
CCCCTATAAT	1.04
ACGCAACCTT	1.46
ACCCCTGCCC	1.17
CTTCTGTCGG	1.02
AATGCGATAA	1.31
GGAGGATTTG	0.969
GGATATTAAT	1.03
TTCAATAGAT	0.933
ATGCAGGGAG	1.03
TCTTATTACT	1.05
ATGGATCCGT	0.963
AACCCCGGGA	1.08
ATTGAAGTTG	0.983
CAATCGTATT	0.983
GTTTTACTTA	1.04
TCGATATGTT	1.02

Sequence	switch fluorescence ratio
ATCCAGAGCG	1.06
CAGGATTTA	0.985
TATCCGAGAG	1.07
TAGGGCTGAG	1.01
ACCAATCCCT	0.952
ATAGATCAAA	0.99
GAGATAATGA	1.03
ATCAGTTTTT	0.934
AGTGGATGG	0.941
TAGGAGACT	1.02
ACTGGTATTT	1.01
AAACGGTCAG	0.994
CTAATGCTTT	1
ACTACGGCTT	1.06
TCTCATCGCG	1.04
ACGCCAAATT	1.03
TTTAAGTCCG	0.982
AGGAACGAGG	1
GGCCCATGAT	1.02
TATCGGGTAC	1.15
GTGATGAGGG	1.02
TGCCAGCTCT	1.06
ATAAACTGTG	1.06

Sequence	switch fluorescence ratio
GCTGAAAGAT	1.03
TTGGCGAGAG	0.987
AGGGAATTTA	1.03
TCAGGCTTC	1.04
GTAGGGACTG	0.976
TACGGGGTGG	0.976
ATATACGTTA	1.16
CTCGATACCC	1.22
GCTCGGCCGC	1.08
TCAATGCGGT	2.64
CTGTCTGTTA	1.06
TGGCAATGCA	1.11
CCCGGATTGG	1
CGCGTTCTGC	1.01
TTGACCTGTC	0.959
CGGTAAAGT	1.03
GAATTCGTAA	1.06
AACGGCAATG	1.2
GCGGGGGAGC	0.957
GGCGAATTAA	1.05
TTGACTGACG	1.07
CCTGCAACCG	1.72
ATGTCGGTCC	0.995

Sequence	switch fluorescence ratio
CCCTTCCGTG	2.12
GTGTGCTAGA	1.04
ACGCTGCAAT	3.52
AAAGGGAGC	1.02
ATTCATAGAT	0.948
TCGCGCGTTT	1.01
GGTAAACTGG	0.959
TAACATTGGA	1.04
TCTCAGCAAG	1.61
TTGACGGATC	0.991
ACCCGGATC	1.08
AGTCAAGATA	0.981
CACGTCGGTT	0.973
TAAAAATCCG	0.967
CAAGTTGCTA	1.01
TTAGAGATG	0.968
CTATTTCATG	0.993
AGATCAATGC	1.51
AGTTTAGGG	1.08
GATCGGGTGG	1.01
TATGCGCCTG	0.933
CGTCGGATGT	1.02
AATATTTT	1.01

Sequence	switch fluorescence ratio
TAGAGTGGAA	1.03
GGTCTATTTG	1.01
TGACTGGTTG	1.02
CAATGTCCGT	1
CCATAACGTG	0.969
TGGCGATGGC	1
TGGAGACCCG	0.991
GCATATTTAA	1.02
TTCTGCCCGC	1.13
AGTAAATCAC	1.04
ACACTTCCTA	1.21
TGGAACCGTC	1.16
GGCTAAGGTA	0.979
ATATACGGCG	1.02
AATGCCATA	1.02
GATGCTAGAG	1.03
GGCAGAGTTT	1.01
AGCTCCTGTT	0.99
ATAGCTTTTT	0.978
GTTGGAGT	0.975
AATCTTAGTC	0.989
CGAAAGGAAT	0.996
ACTGGACCAT	1.09

Sequence	switch fluorescence ratio
CTGCTGATTC	1.15
AGCCAGCGCT	0.989
TTTATATTGT	0.998
AGGCTGCTCT	0.995
TTACGATTTC	1
CGCAGCGCGT	0.999
AATTGTCGCA	0.995
TTCAAGTAAG	1.03
AAAGAGCCAC	1.05
AACGGGGTTT	1.02
GGCGAATGA	1
TAAAGCAAAT	0.994
GGAACCGCAG	2.42
AACGGTAGGG	1.03
CCTTATGCA	1.36
GGGCAGCTGC	1.1
GGCGGCGGTG	0.997
TTATCTAAAC	1.16
AGTACTATGA	1.01
